# Measured values from the supplement of paper PMC8728848.
# The list shows a part of the results.
# How the values were obtained:
# Test in all cases: glycan array binding signal (z-score within array); higher = stronger binding
# Details in all cases: glycan notation: IUPAC condensed, linker removed
# Fuc(a1-2)Gal = target: Fuc(a1-2)Gal
# Procedure, shortened: (§1)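 Glycan array data were curated from 3228 arrays in the Consortium for Functional Glycomics database and kept only where the protein sequence was available. Glycan names were converted to IUPAC-condensed notation, and columns mapping to the same glycan were averaged. The binding signal is a within-array Z-score, averaged across arrays of the same protein sequence at different concentrations or buffers and across linkers. Negative Z-scores can be read as non-binding.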
# Fuc(a1-2)Gal(b1-3)GalNAc = target: Fuc(a1-2)Gal(b1-3)GalNAc
# Procedure, shortened: as §1
# [1] = target: Fuc(a1-2)Gal(b1-3)GalNAc(a1-3)[Fuc(a1-2)]Gal(b1-4)Glc
# Procedure, shortened: as §1
# [2] = target: Fuc(a1-2)Gal(b1-3)GalNAc(a1-3)[Fuc(a1-2)]Gal(b1-4)GlcNAc
# Procedure, shortened: as §1
# [3] = target: Fuc(a1-2)Gal(b1-3)GalNAc(b1-3)Gal
# Procedure, shortened: as §1
# [4] = target: Fuc(a1-2)Gal(b1-3)GalNAc(b1-3)Gal(a1-4)Gal(b1-4)Glc
# Procedure, shortened: as §1
# [5] = target: Fuc(a1-2)Gal(b1-3)GalNAc(b1-4)[Neu5Ac(a2-3)]Gal(b1-4)Glc
# Procedure, shortened: as §1
# Fuc(a1-2)Gal(b1-3)GlcNAc = target: Fuc(a1-2)Gal(b1-3)GlcNAc
# Procedure, shortened: as §1
# [6] = target: Fuc(a1-2)Gal(b1-3)GlcNAc(b1-2)Man(a1-3)[Fuc(a1-2)Gal(b1-3)GlcNAc(b1-2)Man(a1-6)]Man(b1-4)GlcNAc(b1-4)GlcNAc
# Procedure, shortened: as §1
# [7] = target: Fuc(a1-2)Gal(b1-3)GlcNAc(b1-2)Man(a1-3)[Fuc(a1-2)Gal(b1-3)GlcNAc(b1-2)Man(a1-6)]Man(b1-4)GlcNAc(b1-4)[Fuc(a1-6)]GlcNAc
# Procedure, shortened: as §1
# [8] = target: Fuc(a1-2)Gal(b1-3)GlcNAc(b1-3)Gal(b1-4)Glc
# Procedure, shortened: as §1
# [9] = target: Fuc(a1-2)Gal(b1-3)GlcNAc(b1-3)GalNAc
# Procedure, shortened: as §1
# [10] = target: Fuc(a1-2)Gal(b1-3)GlcNAc(b1-3)[Fuc(a1-2)Gal(b1-3)GlcNAc(b1-6)]GalNAc
# Procedure, shortened: as §1
# [11] = target: Fuc(a1-2)Gal(b1-3)GlcNAc(b1-3)[Gal(b1-4)GlcNAc(b1-6)]Gal(b1-4)Glc
# Procedure, shortened: as §1
# [12] = target: Fuc(a1-2)Gal(b1-3)GlcNAc(b1-3)[Neu5Ac(a2-6)Gal(b1-4)GlcNAc(b1-6)]Gal(b1-4)Glc
# Procedure, shortened: as §1
# [13] = target: Fuc(a1-2)Gal(b1-3)GlcNAc6S
# Procedure, shortened: as §1
# [14] = target: Fuc(a1-2)Gal(b1-3)[Fuc(a1-4)]GlcNAc
# Procedure, shortened: as §1
# [15] = target: Fuc(a1-2)Gal(b1-3)[Fuc(a1-4)]GlcNAc(b1-2)Man(a1-3)[Fuc(a1-2)Gal(b1-3)[Fuc(a1-4)]GlcNAc(b1-2)Man(a1-3)]Man(b1-4)GlcNAc(b1-4)GlcNAc
# Procedure, shortened: as §1
# [16] = target: Fuc(a1-2)Gal(b1-3)[Fuc(a1-4)]GlcNAc(b1-2)Man(a1-3)[Fuc(a1-2)Gal(b1-3)[Fuc(a1-4)]GlcNAc(b1-2)Man(a1-6)]Man(b1-4)GlcNAc(b1-4)[Fuc(a1-6)]GlcNAc(b1-4)[Fuc(a1-6)]GlcNAc
# Procedure, shortened: as §1
# [17] = target: Fuc(a1-2)Gal(b1-3)[Fuc(a1-4)]GlcNAc(b1-3)[Fuc(a1-3)[Gal(b1-4)]GlcNAc(b1-6)]Gal(b1-4)Glc
# Procedure, shortened: as §1
# [18] = target: Fuc(a1-2)Gal(b1-3)[Fuc(a1-4)]GlcNAc(b1-3)[Gal(b1-4)GlcNAc(b1-6)]Gal(b1-4)Glc
# Procedure, shortened: as §1
# [19] = target: Fuc(a1-2)Gal(b1-4)Fuc(a1-3)]GlcNAc(b1-2)Man(a1-3)[Fuc(a1-2)Gal(b1-4)[Fuc(a1-3)]GlcNAc(b1-2)Man(a1-6)]Man(b1-4)GlcNAc(b1-4)GlcNAc
# Procedure, shortened: as §1
# Fuc(a1-2)Gal(b1-4)Glc = target: Fuc(a1-2)Gal(b1-4)Glc
# Procedure, shortened: as §1
# Fuc(a1-2)Gal(b1-4)Glc6S = target: Fuc(a1-2)Gal(b1-4)Glc6S
# Procedure, shortened: as §1
# Fuc(a1-2)Gal(b1-4)GlcNAc = target: Fuc(a1-2)Gal(b1-4)GlcNAc
# Procedure, shortened: as §1
# [20] = target: Fuc(a1-2)Gal(b1-4)GlcNAc(b1-2)Man
# Procedure, shortened: as §1
# [21] = target: Fuc(a1-2)Gal(b1-4)GlcNAc(b1-2)Man(a1-3)[Fuc(a1-2)Gal(b1-4)GlcNAc(b1-2)Man(a1-6)]Man(b1-4)GlcNAc(b1-4)GlcNAc
# Procedure, shortened: as §1
# [22] = target: Fuc(a1-2)Gal(b1-4)GlcNAc(b1-2)Man(a1-3)[Fuc(a1-2)Gal(b1-4)GlcNAc(b1-2)Man(a1-6)]Man(b1-4)GlcNAc(b1-4)[Fuc(a1-6)]GlcNAc
# Procedure, shortened: as §1
# [23] = target: Fuc(a1-2)Gal(b1-4)GlcNAc(b1-2)[Fuc(a1-2)Gal(b1-4)GlcNAc(b1-4)]Man(a1-3)[Fuc(a1-2)Gal(b1-4)GlcNAc(b1-2)Man(a1-6)]Man(b1-4)GlcNAc(b1-4)GlcNAc
# Procedure, shortened: as §1
# [24] = target: Fuc(a1-2)Gal(b1-4)GlcNAc(b1-3)Gal(b1-4)GlcNAc
# Procedure, shortened: as §1
binder,measurement,setting,value
"CLECb-Precomplexed (Mus musculus), P43025 (protein) MAKNGLVLCILVVSLLLDQTDGYPSRMKARKHSKRRVKAKDDDLKSQVEKLWREVNALKEMQALQTVCLRGTKVHKKCYLASEGLKHYHEANEDCISKGGTLVVPRNSDEINALRDYGKRSLPGVNDFWLGINDMVTEGKFLDVHGFAVSFLNWDRAQPSGGKRENCVLFSQSAQGKWSDEACRSSKRYICEFIIPTRTRPLEQKLISEEDLAANDILDYKDDDDKV",glycan array binding signal (z-score),Fuc(a1-2)Gal,-0.428
same,glycan array binding signal (z-score),Fuc(a1-2)Gal(b1-3)GalNAc,-0.304
same,glycan array binding signal (z-score),[1],-0.41
same,glycan array binding signal (z-score),[2],-0.409
same,glycan array binding signal (z-score),[3],0.227
same,glycan array binding signal (z-score),[4],-0.577
same,glycan array binding signal (z-score),[5],-0.221
same,glycan array binding signal (z-score),Fuc(a1-2)Gal(b1-3)GlcNAc,-0.163
same,glycan array binding signal (z-score),[6],1.58
same,glycan array binding signal (z-score),[7],-0.203
same,glycan array binding signal (z-score),[8],-0.062
same,glycan array binding signal (z-score),[9],-0.589
same,glycan array binding signal (z-score),[10],0.337
same,glycan array binding signal (z-score),[11],-0.234
same,glycan array binding signal (z-score),[12],-0.178
same,glycan array binding signal (z-score),[13],-0.588
same,glycan array binding signal (z-score),[14],0.299
same,glycan array binding signal (z-score),[15],-0.07
same,glycan array binding signal (z-score),[16],0.228
same,glycan array binding signal (z-score),[17],0.45
same,glycan array binding signal (z-score),[18],-0.164
same,glycan array binding signal (z-score),[19],0.346
same,glycan array binding signal (z-score),Fuc(a1-2)Gal(b1-4)Glc,-0.51
same,glycan array binding signal (z-score),Fuc(a1-2)Gal(b1-4)Glc6S,-0.092
same,glycan array binding signal (z-score),Fuc(a1-2)Gal(b1-4)GlcNAc,-0.225
same,glycan array binding signal (z-score),[20],0.223
same,glycan array binding signal (z-score),[21],2.16
same,glycan array binding signal (z-score),[22],0.75
same,glycan array binding signal (z-score),[23],0.752
same,glycan array binding signal (z-score),[24],-0.117
